Read counts are not given, so values of variants with three or more changes are uncertain.
B1: LINE1-mini (parent)
chain: GGCAGAGCUCAACACAGCGUGGCAAAGUGGCUGUGGCUAGACUGCC

Variants of: B1
Assay: self-cleavage, relative activity (ratio to wild type); higher = more cleavage; in vitro, sequencing; the parent is a self-cleaving ribozyme

Variant | self-cleavage
GGCAGAGCUCAACUCAGCGUGGGAAAGUGGCUGAGGCUAGAAUGCA [A14U C23G U34A C42A C46A] | 0.15
GGCAGAGCUCAACUCAGCUUGGCAAAGUGGCUGUGGCUAGUCUGCC [A14U G19U A41U] | 0.08
GGCAGAGCUCAACUUAGCGUGGCAAAGUGGCUGUGGCUAGACUGUC [A14U C15U C45U] | 0
GGCAGAGCUCAACUCAGCGUGGCUACGUGGCUGUGGCUAGACUGCC [A14U A24U A26C] | 0.27
GGCAGAGCUCAACUCAGCGUGGCCAAGUGACUGUGGCUAGACUGCC [A14U A24C G30A] | 0.04
GGCAGAGCUCAACUGAGCGUGGUAAAUUGGAUGUGGCUAGACUGCC [A14U C15G C23U G27U C31A] | 0.02
GGCAGAGCUCAACUCAGCGUGGCAUAGUGGCUGCGGCUAGACUGCC [A14U A25U U34C] | 0.06
GGCAGAGCUCAACUCAGCCUGGCAUAGUGGCUGUGGCUAGACUGCC [A14U G19C A25U] | 0.09
GGCAGAGCUCAACUCAGCGUGGAAAAGUGGAUGUGGCUAGACUGCC [A14U C23A C31A] | 0.08
GGCAGAGCUCAACUCAGCGUAGCAAAGUGGCUGUGGCUAGACAGCC [A14U G21A U43A] | 0.03
GGCAGAGCUCAACUCAGUGUUGCAAAGUGGCUGUGGCUAGACUGCA [A14U C18U G21U C46A] | 0.08
GGCAGAGCUCAACUUAGCGGGGCAAAGUGGCUGUGGCUAGACUGCC [A14U C15U U20G] | 0.16
GGCAGAGCUCAACUUAGCGUGGCAAAGUGGCCGUGGCGAGACUGCU [A14U C15U U32C U38G C46U] | 0.02
GGCAGAGCUCAACUCAGCGUGGCAAAGUGGCUGUGGUUGUACUGCC [A14U C37U A39G G40U] | 0
GGCAGAGCUCAACUCAGCGUGGCACAGUGGUAGUGGCUAGCCUGCC [A14U A25C C31U U32A A41C] | 0.02
GGCAGAGCUCAACUCAGCGUGGCAAAUUGGCUGUGGCUAGACUGCU [A14U G27U C46U] | 0.04
GGCAGAGCUCAACUCAGCGUGGCAAAGUGGCUGUGGCUAGAUUACC [A14U C42U G44A] | 0.09
GGCAGAGCUCAACUCAGCGUGGCAAAGUGGCUCUGGCUAGCCUGCC [A14U G33C A41C] | 0.02
GGCAGAGCUCAACUCAGCGUGGCAAAGUAGCUGUGGCUAAAUUGCG [A14U G29A G40A C42U C46G] | 0.03

Variant | self-cleavage
GGCAGAGCUCAACUCAGGGUGGCAAAGUGCCUGUGGCUAGACUGUC [A14U C18G G30C C45U] | 0.43
GGCAGAGCUCAACUGAGUGUGGCAAAGUGGCUGAGGCUAGACUACC [A14U C15G C18U U34A G44A] | 0.13
GGCAGAGCUCAACUCAGCGUGGCAAAGUGGCUCAGGCUAGACUCCC [A14U G33C U34A G44C] | 0.05
GGCAGAGCUCAACUCAGCGUGGCAAAGUGGCUGUGGCUAGAUUGAC [A14U C42U C45A] | 0
GGCAGAGCUCAACUCAGCGUGGCAAUGUGAGUGUGGCUAGACUGCC [A14U A26U G30A C31G] | 0.51
GGCAGAGCUCAACUCAGCGUGGCAAGGUGACUGUGGCUAGACUGCC [A14U A26G G30A] | 0.03
GGCAGAGCUCAACUCACCGUGGCAAAGUGGCUGUAGCUAGACUGCC [A14U G17C G35A] | 0.06
GGCAGAGCUCAACUCAGCUUGCCAAAGUGGCUGUGGCUAGACUGCC [A14U G19U G22C] | 0.18
GGCAGAGCUCAACUCAGCGUGGCAAAGUGAAUGUGGCUAGACUGCC [A14U G30A C31A] | 0.01
GGCAGAGCUCAACUCAGCGUUGCAAAGUCGCGGUGGCUAGACUGCC [A14U G21U G29C U32G] | 0.07
GGCAGAGCUCAACUCAGCGUGGCAAUUUGGCUGUGGCUAGACUGCC [A14U A26U G27U] | 0.03
GGCAGAGCUCAACUCAACGUGGCAAAGUGGCUGAGGCUAGACUGCA [A14U G17A U34A C46A] | 0.1
GGCAGAGCUCAACUCAUCGUGGCAAAUUGGCCGUGGCUAGUCUGCC [A14U G17U G27U U32C A41U] | 0.1
GGCAGAGCUCAACUCAGAGUGGCAAAGUGGCUGUGGCUAGACUGCA [A14U C18A C46A] | 0.06
GGCAGAGCUCAACUCAGCGUGGCAAAAUGGCUGUGGCUAGACAGCC [A14U G27A U43A] | 0.04
GGCAGAGCUCAACUCAGCAGGGCAAAGUGGCUGUGGCUAGACUGCC [A14U G19A U20G] | 0.05
GGCAGAGCUCAACUCAGCUUGGCAAAGUGGCUGUGCCUAGACUGCC [A14U G19U G36C] | 0.05
GGCAGAGCUCAACUCAGCGUGGCAAAGUGGAUGUGGCAAGACUGCC [A14U C31A U38A] | 0.08
GGCAGAGCUCAACUCAGCGUGGCAAAGUAGCUGUGGCUGGACUGCC [A14U G29A A39G] | 0.04

Variant | self-cleavage
GGCAGAGCUCAACUCAGCGUUGCAAAGUGGCUGUGGCUAGGCUGCC [A14U G21U A41G] | 0.06
GGCAGAGCUCAACUCAACGUGGCAAAGUGGCUGUGGCUAAACUGCC [A14U G17A G40A] | 0.03
GGCAGAGCUCAACUCAGAGUGGCAAAGAGGCUGUGGCUAGACUGCC [A14U C18A U28A] | 0.01
GGCAGAGCUCAACUCAGAGUGGCAAAGUGGCUGUGGCUAGACUGUC [A14U C18A C45U] | 0.08
GGCAGAGCUCAACUCAGCGUAUCAAAGUGGCUGUGGCUAGACAGCC [A14U G21A G22U U43A] | 0.27
GGCAGAGCUCAACUCAGCCUGGCAAAGUGGCUGCGGUUAGACUGCC [A14U G19C U34C C37U] | 0.01
GGCAGAGCUCAACUCAGCGUGGCAAAGUGGCUGUGACUAGACAGCC [A14U G36A U43A] | 0.04
GGCAGAGCUCAACUCUGCGUGACAAAGUGGCUGUGGCUAGAAUGCC [A14U A16U G22A C42A] | 0.04
GGCAGAGCUCAACUCAGUGUGGGAAAGUGGCUUUGGCUAGUCUGCC [A14U C18U C23G G33U A41U] | 0.11
GGCAGAGCUCAACUCAGCGAGGCCAAGUGGCUGUGGCUAGACUGCC [A14U U20A A24C] | 0.03
GGCAGAGCUCAACUCAGCGUUGGAAAGUGACUGUGGUUAGACUGCC [A14U G21U C23G G30A C37U] | 0.03
GGCAGAGCUCAACUCAGCGUGGCAAAGUGGCUGUGACUAGGCUGCC [A14U G36A A41G] | 0.17
GGCAGAGCUCAACUCAGGGUGGCAAAGUGGCUGUGGCUAGACGGCC [A14U C18G U43G] | 0.04
GGCAGAGCUCAACUCAGCGUGGCAAAGUGGCUUUGGCUAGACAGCC [A14U G33U U43A] | 0.03
GGCAGAGCUCAACUUAGCGUGGCAAGGUGGCUGUGGCUAGACAGCC [A14U C15U A26G U43A] | 0.07
GGCAGAGCUCAACUAAACGUGCCAAAGUGGCUGUGGCUAGACUGCC [A14U C15A G17A G22C] | 0.07
GGCAGAGCUCAACUCAGGGUGGCAAAGUGGCUGUGCCUAGAAUGCC [A14U C18G G36C C42A] | 0.01
GGCAGAGCUCAACUCAGCGUGGCAAGGUGGCUGUCGCUAGACUGCC [A14U A26G G35C] | 0.05

— the RNAGym collection of RNA variant scans (doi:10.7554/elife.90254)
